# The list shows a part of the results. Sequences were assembled here from the parent chain. Values near 0.05 are background.
# B1: TEV protease; numbered along this chain (parent)
# chain: MGESLFKGPRDYNPISSSICHLTNESDGHTTSLYGIGFGPFIITNKHLFRRNNGTLVVQSLHGVFKVKDTTTLQQHLVDGRDMIIIRMPKDFPPFPQKLKFREPQREERICLVTTNFQTKSMSSMVSDTSCTFPSGDGIFWKHWIQTKDGQCGSPLVSTRDGFIVGIHSASNFTNTNNYFTSVPKNFMELLTNQEAQQWVSGWRLNADSVLWGGHKVFMVKPEEPFQPVKEATQL
# Variants of: B1
# Test: raw area under fraction-flipped curve 0-4 h after induction (AUC4h, not background-subtracted), DNA-recorder readout of cleavage of the substrate (dimensionless); higher = more cleavage of the substrate by the protease variant
# Details: temperature: 34 °C; time window: 0-4 h after rhamnose induction
# Protocol: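 In vivo DNA recorder in E. coli TOP10(DE3) ΔrhaA at 34 °C. Each TEVp single-site mutant (parent TEVp 0) is paired with a single-site variant of the 7-mer TEVs (canonical ENLYFQ|S). The substrate sits between flexible linkers in a Bxb1-sfGFP-TEVs-SsrA fusion, so cleavage stabilises Bxb1 and speeds flipping of a recombination array, read by NGS. The value is the raw area under the fraction-flipped curve over 0-4 h after rhamnose induction (AUC4h), with ≥20 reads per time point. It is not background-subtracted; inactive controls average about 0.047.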
# 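Further: Bxb1 expression induced with 0.2% (w/v) L-rhamnose at OD600 near 0.5, cultures sampled hourly, flipped fraction per protease–substrate barcode pair counted by paired-end Illumina sequencing.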
Variant,area with substrate ENAYFQS,area with substrate ENCYFQS,area with substrate ENDYFQS,area with substrate ENEYFQS,area with substrate ENFYFQS,area with substrate ENGYFQS,area with substrate ENHYFQS,area with substrate ENKYFQS,area with substrate ENNYFQS,area with substrate ENPYFQS,area with substrate ENQYFQS,area with substrate ENRYFQS,area with substrate ENSYFQS,area with substrate ENVYFQS,area with substrate ENYYFQS,area with substrate ENIYFQS,area with substrate ENTYFQS,area with substrate ENMYFQS,area with substrate ENWYFQS
H76K,0.0766,0.0687,0.0618,0.0638,0.0648,0.0454,0.0572,0.0697,0.0725,0.0703,0.0621,0.0658,0.0584,0.0578,0.064,–,–,–,–
L77Q,0.0684,0.0612,0.061,0.0643,0.0793,0.0208,0.0695,0.0751,0.059,0.0458,0.061,0.0629,0.0515,0.0524,–,0.0456,0.0604,–,–
L77C,0.0844,0.0555,–,0.0429,–,–,0.0608,–,0.0449,–,0.0566,0.0598,–,0.0687,0.0491,0.0727,–,0.0813,–
K90P,0.0571,0.0677,0.0744,0.0542,–,–,0.0543,–,0.06,0.0584,0.0688,0.0503,0.0605,0.0891,–,0.0913,0.0755,–,–
K90N,0.0555,–,–,–,0.0554,–,–,–,0.0596,0.0587,0.064,0.0926,–,–,0.0569,0.0894,0.0487,–,–
K90R,0.0662,–,0.0586,–,0.0642,–,–,–,0.0544,–,–,–,0.0633,–,0.0564,–,–,–,–
D69Y,0.0517,–,0.0518,–,0.0626,0.0631,–,0.0697,0.0591,0.0542,–,0.0637,0.0585,–,–,–,–,0.0908,–
D69K,0.0509,–,–,–,0.0596,–,–,–,0.058,–,0.0607,–,0.121,–,–,–,–,0.0661,–
V78L,0.0443,0.0688,0.0596,0.0631,0.0611,–,–,–,0.057,–,–,–,–,–,–,–,0.0705,–,0.0472
V78R,0.0678,–,0.0553,0.0617,0.0557,–,0.0494,–,0.0644,0.0475,–,0.04,–,0.0418,–,–,0.0538,–,0.0018
I86T,0.0491,0.0589,–,0.0799,–,0.0637,0.0278,0.0585,0.0515,–,0.0439,0.0579,0.068,–,–,–,0.0522,–,0.0445
I86S,0.0553,0.0509,0.0393,0.054,0.0511,0.0741,–,0.0377,–,–,0.0578,0.0513,0.0592,–,0.0354,0.0508,0.0438,0.0488,–
I86L,0.0731,–,0.0558,–,–,–,0.0327,–,0.0529,–,0.0589,–,–,–,–,–,–,–,–
K68D,0.0678,–,–,0.0681,–,0.0698,0.0913,0.0405,0.0582,0.0421,0.0665,0.0629,–,–,–,–,0.0736,–,–
K68H,0.0641,–,–,0.0525,0.0593,0.0484,–,–,0.0799,–,0.0786,0.033,0.0595,0.0684,0.0409,0.12,0.0669,–,–
K68W,0.0468,0.0646,–,0.059,0.064,–,–,–,0.0724,0.0667,0.0638,0.0485,0.0518,0.0773,0.0612,0.0994,–,0.0789,–
K68G,0.0677,0.0619,0.0551,0.0504,0.0554,0.059,0.0523,–,0.0606,0.0563,0.0617,0.0445,0.0706,0.0773,–,–,–,0.0724,0.0634
Q74K,0.0393,–,0.0665,0.0498,0.0422,–,–,–,0.0631,0.0448,0.0533,0.0587,0.0736,0.0724,0.0583,0.129,–,0.0763,0.0773
Q74M,0.0566,0.0533,0.0577,0.0593,–,0.0623,–,0.0631,0.0633,–,0.0558,–,0.0623,0.131,0.0643,–,0.0715,–,0.0448
Q74A,0.0642,0.0663,0.0646,0.067,0.0621,0.0751,–,0.0693,0.0714,0.0716,0.0561,0.0476,0.0515,0.027,–,0.0918,–,0.0776,–
T70K,0.0578,–,0.0628,–,0.0672,0.0578,–,–,–,–,0.07,–,–,–,0.0668,–,–,–,–
T70N,0.0426,–,0.0622,0.0692,–,0.0357,–,0.0557,–,–,0.0556,0.047,–,0.0565,–,0.0863,0.0859,0.0443,–
T70P,0.0515,0.0561,0.0583,0.0572,0.0665,0.0478,–,0.0754,0.0475,–,0.0631,–,0.0597,–,–,–,0.0594,–,0.0569
V67F,0.0546,–,0.0699,0.0668,0.0382,0.0638,0.0614,–,0.0393,0.0704,0.0557,–,0.0474,0.0905,–,–,–,0.0713,–
V67I,0.0466,–,0.061,–,–,–,–,–,–,–,0.0566,0.0561,0.0431,–,–,–,–,–,0.002
V67N,0.0633,0.0507,0.0497,–,0.0096,0.0433,–,–,–,–,0.0632,0.0534,0.0509,–,0.059,–,–,0.0677,–
V67P,0.0421,0.0504,0.0496,0.0361,0.0506,–,0.0415,0.0533,0.0432,0.0792,0.0414,0.0376,0.0456,0.0512,–,0.0591,–,0.0244,0.0042
V67K,0.0608,–,0.0571,–,0.05,0.066,0.0626,–,0.0609,0.0507,0.0549,0.0166,0.0579,–,–,–,0.0479,0.0502,0.0641
L61P,0.0543,0.0672,0.0613,0.0605,0.0595,0.0618,–,0.0533,–,0.0538,0.0564,–,–,0.0747,0.0415,–,0.0554,0.0644,–
L61R,0.0617,0.0607,0.0622,0.062,–,0.0641,0.0668,0.0638,0.062,0.0612,0.0609,0.0695,0.0562,0.0613,–,0.127,0.0633,0.0808,–
